According to a compilation of properties of binary mixtures (doi:10.1016/j.molliq.2016.02.018):
The densities may have been worked out from excess volumes.

Experiment: xn = mol fraction of the nth substance listed
Details: 101 kPa

CCCC[n+]1ccn(C)c1.O=S(=O)([N-]S(=O)(=O)C(F)(F)F)C(F)(F)F + CC(=O)[O-].CCCC[n+]1ccn(C)c1
Details | mass density [kg/m3]
283.15 K, x1 = 1 | 1451

CC(=O)[O-].CCCC[n+]1ccn(C)c1 + CCCC[n+]1ccn(C)c1.O=S(=O)([N-]S(=O)(=O)C(F)(F)F)C(F)(F)F
mass density [kg/m3]
Details | x2 = 0 | x2 = 0.1057 | x2 = 0.2396 | x2 = 0.321 | x2 = 0.3662 | x2 = 0.5245 | x2 = 0.6541 | x2 = 0.8097
283.15 K | – | – | 1186 | – | – | 1303 | 1349 | 1397
298.15 K | 1052 | 1109 | 1174 | – | 1230 | 1291 | 1336 | –
313.15 K | – | – | 1164 | – | – | 1279 | – | –
314.3 K | 1068 | – | – | 1212 | – | 1285 | – | –
333.15 K | 1030 | – | 1150 | – | 1203 | 1263 | 1306 | 1352
